This note sets out measurements from ChEMBL document CHEMBL4888484, “Replenishing the malaria drug discovery pipeline: Screening and hit evaluation of the MMV Hit Generation Library 1 (HGL1) against asexual blood stage Plasmodium falciparum ,using a nano luciferase reporter read-out” (2022).

In all, about 150,000 compounds went through this assay and about 540 (0.36%) showed an effect of 50% or more. The list shows a part of the results.

This test has as its system Plasmodium falciparum. The test is described as follows: Primary screen in NF54 nanoGlo assay, in single point, at 2uM, 72h; a lower Z score goes with more inhibition. It counts as functional, Erythrocyte. The conditions noted are these: timepoint 72 hour.
In general, % Inhibition refers to the change of the read-out against control, counted positive when it falls. In the case of `COCCN(Cc1ccc(C)o1)C[C@H](O)C(C)C`, the “% Inhibition” value is -10% and the Z score is 1.19.
As for `COc1cccc(NC(=O)N2CCC(C)CC2)n1`, the “% Inhibition” value came to 0% and the Z score was found to be 0.
On to `Cc1nn(C)c2nc(C=Cc3cnc(N(C)C)n3C)cc(C(=O)O)c12`, for which the “% Inhibition” value is recorded as -42% and the Z score stood at 4.93.
For the compound `CS(=O)(=O)c1ccc(-c2ccc(-n3cccn3)cc2)cc1`, the “% Inhibition” value came to 0% and the Z score was -0.04.
Taken in the same sequence, the figures for `Cc1cc(C)cc(CN2CCN(C(=O)c3c(C)n[nH]c3C3CC3)CC2=O)c1` were -7% and 0.87.
`CC1CCC(N(C)C(=O)[C@H]2CC2(Cl)Cl)CC1` (stereo partly drawn): the “% Inhibition” value is listed as -4% and the Z score is reported as 0.55.
The corresponding values for `Cc1cc(C)c(NC(=O)CN2C(=O)CC(c3cccs3)=Nc3cc(C)c(C)cc32)c(C)c1` are -7% and 1.25.
The corresponding values for `COC(=O)[C@H]1CC[C@H](C(=O)Nc2c(Cl)ccc(F)c2C)CC1` are -11% and 0.95.
Taken in the same sequence, the figures for `Cc1nc(C)c(C)c(Nc2ccc3c(c2)CC(=O)N3)n1` were 1% and -0.18.
Consider `CCOCCCNC(=O)N1CCOCC1`, for which the “% Inhibition” value was -7% and the Z score amounted to 1.41.
`CC[C@H]1CN(CCC(=O)O)Cc2cc(OC)ccc2O1`: the “% Inhibition” value stood at 9% and the Z score is reported as -1.22.
Take `CCCn1cc2c3c(cccc31)CN(C(=O)NCCCOC)CC2`: the “% Inhibition” value is -6% and the Z score amounted to 0.55.
Take `CS(=O)(=O)c1ccc(-c2nc([C@H]3CCOC3)no2)cc1`: the “% Inhibition” value was -12% and the Z score is on record as 1.62.
The corresponding values for `CCn1c(=O)n(Cc2cc(-c3ccccc3)on2)c2ccccc21` are -4% and 0.72.
In the case of `Cc1ccc(Nc2nnnc3c2cnn3-c2ccccc2)c(C)c1`, the “% Inhibition” value is listed as -5% and the Z score came out at 0.74.
Taken in the same sequence, the figures for `CC[C@H]1Cn2c(C(=O)NC3CCCCC3)cc3c(Cl)ccc(c32)O1` were 31% and -4.44.
On to `Cc1ccc(CNc2cc(C(=O)N3CCc4ccccc4C3)cc(S(=O)(=O)N(C)C)c2)cc1`, for which the “% Inhibition” value was -5% and the Z score worked out at 1.01.
Take `CCC(=O)[C@@H]1CCCCN1C(=O)OC(C)(C)C`: the “% Inhibition” value is given as -8% and the Z score was found to be 0.78.
`CN(Cc1ccccc1)C(=O)c1cnc(COc2ccc(F)cc2)nc1O`: the “% Inhibition” value is reported as -21% and the Z score worked out at 2.45.
The corresponding values for `C[C@H](Nc1ccc2c(c1)CCC(=O)N2)c1ncc(-c2ccccc2)o1` are -3% and 0.35.
Taken in the same sequence, the figures for `COC(=O)C1C(O)CCCN1C(=O)CC1CC2CCC1C2` (stereo not drawn) were -3% and 0.29.
The corresponding values for `COc1ccc(NC(=O)CN(Cc2nc(-c3ccccc3)cs2)C(=O)Cn2nnc3ccccc32)c(OC)c1` are -12% and 1.37.
`Cc1c(S(=O)(=O)N2CCCC2)c(C)n(C)c1C(=O)N1CCc2ccccc21`: the “% Inhibition” value is -1% and the Z score is 0.13.
The corresponding values for `O=C(N[C@@H]1[C@@H]2CCO[C@@H]2[C@@H]1C1CCCC1)c1cc(Cl)c[nH]c1=O` are 0% and -0.05.
Taken in the same sequence, the figures for `CCOc1cc(C(=O)N(C)C[C@@H]2OCCc3ccccc32)on1` were -10% and 1.89.
The corresponding values for `Cc1cc(Br)cc(C)c1OCC(=O)Nc1ccc(C2(c3ccc(NC(=O)COc4c(C)cc(Br)cc4C)cc3)c3ccccc3-c3ccccc32)cc1` are -9% and 1.11.
In the case of `O=C(c1cn(CC(=O)N2CCOCC2)c2ccccc12)C1CC1`, the “% Inhibition” value was -10% and the Z score is listed as 1.87.
The corresponding values for `CC(=O)N[C@@H]1CCNC[C@@H]1c1nc(-c2ccccc2)no1` are -12% and 1.38.
The corresponding values for `O=C(NC(=O)c1ccc(Cl)cc1Cl)OC[C@@H]1CCCN2CCCCC12` (stereo partly drawn) are 3% and -0.46.
On to `CN(c1ncccc1Cl)[C@H]1CCN(CC(F)(F)F)C1=O`, for which the “% Inhibition” value is -13% and the Z score is listed as 1.57.
In the case of `Cn1ccc(-c2noc([C@@H](CN)C3CCCCCC3)n2)cc1=O`, the “% Inhibition” value was -5% and the Z score was found to be 1.05.
Taken in the same sequence, the figures for `CC(C)c1ccc(NC(=O)CCNC(=O)N2CC(=O)Nc3ccccc32)cc1` were 27% and -3.06.
Taken in the same sequence, the figures for `Cn1ncc2c(NC[C@H](O)c3cc(Cl)c4c(c3)OCCO4)ccnc21` were -6% and 1.08.
On to `CN(CCO)C[C@@H]1CN(C(=O)C2(c3ccccc3)CCCC2)C[C@@H]1CO`, for which the “% Inhibition” value was -27% and the Z score was found to be 2.7.
`Cc1cccc(Cn2cc(N3C(=O)C4CCCCC4C3=O)cn2)c1` (stereo not drawn): the “% Inhibition” value is 16% and the Z score is given as -1.94.
On to `CCOC(=O)[C@@]1(C(C)C)CCN(Cc2c(C)nn(C)c2C)C1`, for which the “% Inhibition” value came out at 4% and the Z score was -0.55.
The corresponding values for `CN1C2CCCC1CC(Nc1nc(C3CC3)ns1)C2` (stereo not drawn) are 6% and -0.7.
`COCc1c(C(=O)N2CCC3(CC2)C[C@@H]3NC(=O)c2ccncc2)noc1C`: the “% Inhibition” value is -10% and the Z score is given as 1.27.
Take `Cc1noc(C)c1-c1noc(C=C2CC[C@H](C)C2)n1`: the “% Inhibition” value is on record as -6% and the Z score is reported as 0.85.
`CC(C)N(C)CC(=O)N[C@@H]1CCCC[C@H]1O`: the “% Inhibition” value is reported as -8% and the Z score was determined as 1.42.
The corresponding values for `O=C1CN(C(=O)c2cc(-c3cccc(Cl)c3)[nH]n2)CCN1` are -12% and 1.12.
For the compound `CC(C)(C(=O)N1CC[C@H](CCO)C1)N1CCCCC1`, the “% Inhibition” value was 10% and the Z score is given as -1.32.
On to `COc1ccc(C)cc1S(=O)(=O)C1CS(=O)(=O)CC1N1CCN(c2ccccc2)CC1` (stereo not drawn), for which the “% Inhibition” value is reported as -5% and the Z score is listed as 0.69.
As to `Cc1cnc(NC(=O)[C@H]2CCC(=O)NC2)s1`, the “% Inhibition” value is -13% and the Z score is reported as 2.07.
Consider `CC(C)(C)OC(=O)N1CC(C(=O)Nc2cccc(C(F)(F)F)c2)C1`, for which the “% Inhibition” value was -13% and the Z score turned out to be 1.46.
As to `O=S(=O)(c1cc(Cl)ccc1Cl)N1c2ccccc2Oc2nc3ccccc3nc21`, the “% Inhibition” value is -15% and the Z score was 1.78.
Taken in the same sequence, the figures for `Cc1ccc(S(=O)(=O)NCc2nc(C)c(C)s2)cc1N(C)C` were 14% and -2.44.
Taken in the same sequence, the figures for `CC(C)=CCC[C@H](C)CN1CCC(CCC(=O)NC2CC2)CC1` were -14% and 2.41.
Take `COc1cc(NC(=O)C2CCN(S(C)(=O)=O)CC2)ncn1`: the “% Inhibition” value is reported as -2% and the Z score is recorded as 0.34.
Taken in the same sequence, the figures for `O=C(Cc1ccc[nH]1)Nc1ccc(O)c(Cl)c1` were -5% and 0.72.
For `CCn1c(C(=O)NCCN2CCCC2)c(N2CCCC2=O)c2cc(F)ccc21`, the “% Inhibition” value is given as 3% and the Z score is listed as -0.41.
Take `COC(=O)c1ccc(CN(C)CC(=O)NCCC2CCCCC2)nc1`: the “% Inhibition” value is -16% and the Z score was determined as 1.56.
Taken in the same sequence, the figures for `Cc1cnc(CNC(=O)Nc2cccc3c2CCCC3)cn1` were 6% and -1.06.
The corresponding values for `Cc1cccc(CS(=O)(=O)N2CCC(C(=O)Nc3cccnc3)CC2)c1` are -13% and 2.48.
Take `Cc1oncc1CN1CCN(c2ccccn2)CC1`: the “% Inhibition” value is listed as -2% and the Z score was 0.37.
For the compound `O=C(Nc1nc2ccccn2n1)N[C@H]1CCN(c2ccc(Cl)cc2Cl)C1`, the “% Inhibition” value is -13% and the Z score came to 1.17.
In the case of `CC1CN(C(=O)Cc2cccc3ccccc23)CC(C)O1` (stereo not drawn), the “% Inhibition” value is reported as -8% and the Z score came to 1.61.
As for `COCc1nccc(NC(=O)N[C@H]2CCCc3ccccc3C2)n1`, the “% Inhibition” value is reported as -3% and the Z score is recorded as 0.5.
Taken in the same sequence, the figures for `CC(C)n1nccc1-c1ccc(-n2ccnc2)nn1` were -18% and 2.6.
Taken in the same sequence, the figures for `CCOC(=O)c1nnsc1N1CCN(c2ccc(OC)cc2)CC1` were 5% and -0.65.
The corresponding values for `Cc1cc(=O)c(C(=O)N(CC(C)C)[C@H]2CCCc3cccnc32)c[nH]1` are -4% and 0.64.
For `CN(C)CCNC(=O)c1ccc(-c2ccnc(N3CCCC3)n2)cc1`, the “% Inhibition” value is -6% and the Z score was found to be 0.73.
For `Cc1cc(CN(C)[C@H]2CCC(=O)N(CC3CCCCC3)CC2)on1`, the “% Inhibition” value is reported as -7% and the Z score is given as 1.17.
The corresponding values for `O=C(c1cnccn1)N1C[C@@H]2OCC(=O)N(Cc3ccc(F)cc3)[C@@H]2C1` are -2% and 0.31.
Taken in the same sequence, the figures for `Cc1nnccc1C(=O)N1CC2(CCCC2)C1` were -31% and 3.58.
The corresponding values for `CCN(CC)c1nc2cc(C(=O)NCc3ccccc3OC)ccc2c(=O)n1Cc1ccccc1` are 3% and -0.64.
On to `Cc1cnc(C)c(-c2ccc(C(=O)NCCN3CCCC[C@@H]3CO)cc2)n1`, for which the “% Inhibition” value is on record as -10% and the Z score came out at 1.39.
For the compound `Cc1nc[nH]c1CN1C[C@H]2CC[C@@H](C1)N(C(=O)c1ncc(F)cc1F)C2`, the “% Inhibition” value was determined as 0% and the Z score came out at 0.04.
Take `COCC(=O)N(C1CCOCC1)[C@H]1CCCN(C(=O)c2ccc3ccccc3n2)C1`: the “% Inhibition” value is on record as -7% and the Z score amounted to 1.1.
The corresponding values for `Cn1cc(S(=O)(=O)N2CCCCC2)cc1C(=O)NCCc1cccc(Cl)c1` are -12% and 1.59.
In the case of `CC1(C)CC[C@H](CNC(=O)c2cnn(-c3ccc(F)cc3)n2)O1`, the “% Inhibition” value is 32% and the Z score is reported as -0.33.
The corresponding values for `CC(C)[C@H](C)N(CC(=O)NCCc1ccc(S(N)(=O)=O)cc1)C1CC1` are -11% and 1.4.
For the compound `C[C@H](NC(=O)Nc1nc2ccccn2n1)C1CCOCC1`, the “% Inhibition” value is -4% and the Z score is reported as 0.87.
The corresponding values for `Cc1cccc(C(=O)N2C[C@@H]3CC[C@H]2CN(C(=O)c2cccnc2)C3)c1O` are 6% and -0.92.
The corresponding values for `Cc1nccnc1-c1ccn(CC(=O)Nc2cc(C(C)C)nn2C)n1` are -7% and 1.39.
The corresponding values for `Cc1ccc2c(-c3cnc(N)s3)c[nH]c2c1` are -7% and 0.76.
For the compound `COc1c(-c2noc(C3CCNCC3)n2)cc2c(c1OC)OCO2`, the “% Inhibition” value was -5% and the Z score worked out at 0.63.
The corresponding values for `O=C(Cc1cccc2ccccc12)N1CCN(c2ccccn2)CC1` are 1% and -0.08.
The corresponding values for `Cc1nn(CC(=O)N2C[C@H](C)Oc3cc(F)c(F)cc32)c(=O)n1C` are -3% and 0.5.
Take `O=C(NCc1ccccc1)c1nn[nH]c1Nc1cccc(Cl)c1`: the “% Inhibition” value is -5% and the Z score is reported as 0.79.
On to `Cc1cnc(N)nc1N1CCC(Nc2ccccn2)CC1`, for which the “% Inhibition” value is given as 19% and the Z score is reported as -2.53.
Turning to `O=S(=O)(c1ccc(C2CCCCC2)cc1)N1CCNCC1`, the “% Inhibition” value is -8% and the Z score was found to be 0.71.
The corresponding values for `CCNC(=O)NCC[C@H]1CN(C2CCCCCC2)CCO1` are 0% and -0.04.
Taken in the same sequence, the figures for `CNS(=O)(=O)C[C@H]1CCCN1c1nnc(C)c(C)c1C#N` were 1% and -0.13.
